Assay results taken from the supplement of paper PMC4967469.
A lower IC50 marks a more sensitive line; a fit beyond the top or the lowest dose is shown as a bound at that dose. For AUC the same curve is integrated over the 256-fold range of doses and scaled to a fraction; the more sensitive the line, the further below 1. For some assays here: An inferred top dose was derived from the fitted curves, not read from the paper. For some assays here: Drugs with an entry number were screened twice under separate entries, and the two screens often disagree.

How the values were obtained:
Assay in all cases: Viability of human cancer cell lines after 72 h of drug (GDSC screen)
PI-103 = compound: Oc1cccc(-c2nc(N3CCOCC3)c3oc4ncccc4c3n2)c1 [PI-103]; conditions: top dose 10.24 µM
Protocol: (§1)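 Human cancer cell lines in 384-well plates, medium with 10% serum, drug for 72 h over a 256-fold dose range (nine 2-fold or five 4-fold steps up to the top dose). Adherent lines were fixed and stained with the nucleic acid dye Syto60, suspension lines read with resazurin; signal relative to control wells, capped at 0 and 100%. One two-parameter sigmoid per drug and line, fitted in a mixed model over all curves with the slope shared within a line.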

UNC0638 = compound: COc1cc2c(NC3CCN(C(C)C)CC3)nc(C3CCCCC3)nc2cc1OCCCN1CCCC1 [UNC0638]
Protocol: as §1

BX-795 = compound: O=C(NCCCNc1nc(Nc2cccc(NC(=O)N3CCCC3)c2)ncc1I)c1cccs1 [BX-795]; conditions: top dose 5 µM; top dose inferred
Protocol: as §1

Tretinoin = compound: CC1=C(/C=C/C(C)=C/C=C/C(C)=C/C(=O)O)C(C)(C)CCC1 [Tretinoin]; conditions: top dose 10 µM; top dose inferred
Protocol: as §1

SB-505124 = compound: Cc1cccc(-c2[nH]c(C(C)(C)C)nc2-c2ccc3c(c2)OCO3)n1 [SB-505124]; conditions: top dose 10 µM; top dose inferred
Protocol: as §1

GSK690693 = compound: CCn1c(-c2nonc2N)nc2c(C#CC(C)(C)O)ncc(OC[C@H]3CCCNC3)c21 [GSK690693]; conditions: top dose 10.24 µM; top dose inferred
Protocol: as §1

[1] = top dose 20 µM, screen: GDSC drug entry 1236, top dose inferred
[2] = top dose 40 µM, screen: GDSC drug entry 245

Cell Line | AUC (PI-103) | IC50 (PI-103) [µM] | AUC (UNC0638; [1]) | IC50 (UNC0638; [1]) [µM] | AUC (UNC0638; [2]) | IC50 (UNC0638; [2]) [µM] | AUC (BX-795) | IC50 (BX-795) [µM] | AUC (Tretinoin) | IC50 (Tretinoin) [µM] | AUC (SB-505124) | IC50 (SB-505124) [µM] | AUC (GSK690693) | IC50 (GSK690693) [µM]
OSC-20 (head and neck, adherent) | 0.683 | 2.31 | 0.867 | > 20 | 0.763 | 17 | 0.78 | 2.46 | 0.915 | > 10 | 0.967 | > 10 | 0.928 | > 10.2
OV-7 (ovary, adherent) | 0.491 | 0.598 | 0.878 | > 20 | 0.817 | 39.3 | 0.72 | 1.85 | 0.83 | > 10 | 0.93 | > 10 | 0.94 | > 10.2
OV-17R (ovary, adherent) | 0.55 | 0.924 | 0.943 | > 20 | 0.877 | > 40 | 0.918 | > 5 | 0.981 | > 10 | 0.978 | > 10 | 0.937 | > 10.2
OV-56 (ovary, adherent) | 0.596 | 1.16 | 0.924 | > 20 | 0.879 | 38.2 | 0.866 | 4.16 | 0.982 | > 10 | 0.988 | > 10 | 0.963 | > 10.2
OV-90 (ovary, adherent) | 0.981 | > 10.2 | 0.886 | > 20 | 0.858 | > 40 | 0.851 | > 5 | 0.943 | > 10 | 0.942 | > 10 | 0.973 | > 10.2
OVCA420 (ovary, adherent) | 0.981 | > 10.2 | 0.952 | > 20 | 0.93 | > 40 | 0.961 | > 5 | 0.87 | > 10 | 0.974 | > 10 | 0.979 | > 10.2
OVCA433 (ovary, adherent) | 0.734 | 3.23 | 0.83 | 14.5 | 0.77 | 17 | 0.812 | 3.06 | 0.985 | > 10 | 0.981 | > 10 | 0.974 | > 10.2
OVCAR-5 (ovary, adherent) | 0.85 | > 10.2 | 0.853 | > 20 | 0.814 | 27.5 | 0.783 | 2.56 | 0.982 | > 10 | 0.957 | > 10 | 0.943 | > 10.2
OVISE (ovary, adherent) | 0.304 | 0.149 | 0.871 | > 20 | 0.63 | 6.41 | 0.909 | > 5 | 0.945 | > 10 | 0.978 | > 10 | 0.609 | 1.41
OVK-18 (ovary, adherent) | 0.906 | > 10.2 | 0.984 | > 20 | 0.872 | > 40 | 0.877 | > 5 | 0.978 | > 10 | 0.967 | > 10 | 0.932 | > 10.2
OVKATE (ovary, adherent) | 0.791 | 8.76 | 0.944 | > 20 | 0.746 | 21.1 | 0.978 | > 5 | 0.979 | > 10 | 0.977 | > 10 | 0.969 | > 10.2
OVMIU (ovary, adherent) | 0.226 | 0.081 | 0.887 | > 20 | 0.692 | 9.95 | 0.968 | > 5 | 0.971 | > 10 | 0.978 | > 10 | 0.61 | 1.38
OVTOKO (ovary, adherent) | 0.646 | 1.82 | 0.758 | 8.76 | 0.752 | 16.6 | 0.744 | 1.93 | 0.946 | > 10 | 0.94 | > 10 | 0.961 | > 10.2
P12-ICHIKAWA (T-cell lymphoblastic leukaemia, suspension) | 0.639 | 1.41 | 0.851 | 10.3 | 0.6 | 4.39 | 0.89 | 3.49 | 0.963 | > 10 | 0.986 | > 10 | 0.93 | > 10.2
PA-TU-8902 (pancreas, adherent) | 0.381 | 0.285 | 0.979 | > 20 | 0.844 | 36.1 | 0.881 | > 5 | 0.981 | > 10 | 0.933 | > 10 | 0.973 | > 10.2
PANC-02-03 (pancreas, adherent) | 0.983 | > 10.2 | 0.808 | 12.9 | 0.659 | 7.58 | 0.891 | > 5 | 0.956 | > 10 | 0.971 | > 10 | 0.973 | > 10.2
PANC-03-27 (pancreas, adherent) | 0.852 | 7.12 | 0.812 | 9.9 | 0.658 | 6.66 | 0.877 | 4.45 | 0.989 | > 10 | 0.987 | > 10 | 0.987 | > 10.2
PANC-04-03 (pancreas, adherent) | 0.706 | 3.53 | 0.81 | 20 | 0.908 | > 40 | 0.968 | > 5 | 0.976 | > 10 | 0.974 | > 10 | 0.976 | > 10.2
PC-3 [JPC-3] (lung adenocarcinoma, adherent) | 0.658 | 2.04 | 0.918 | > 20 | 0.956 | > 40 | 0.967 | > 5 | 0.971 | > 10 | 0.972 | > 10 | 0.956 | > 10.2
